Whole data set: some 33,000 sequences, median “E-score (-0.5 to 0.5)” near -0.043, cut for the highest 2% near 0.37. This is one part of the list.
Target: T1, Upc2 (UniProt Q12151)
T1 sequence: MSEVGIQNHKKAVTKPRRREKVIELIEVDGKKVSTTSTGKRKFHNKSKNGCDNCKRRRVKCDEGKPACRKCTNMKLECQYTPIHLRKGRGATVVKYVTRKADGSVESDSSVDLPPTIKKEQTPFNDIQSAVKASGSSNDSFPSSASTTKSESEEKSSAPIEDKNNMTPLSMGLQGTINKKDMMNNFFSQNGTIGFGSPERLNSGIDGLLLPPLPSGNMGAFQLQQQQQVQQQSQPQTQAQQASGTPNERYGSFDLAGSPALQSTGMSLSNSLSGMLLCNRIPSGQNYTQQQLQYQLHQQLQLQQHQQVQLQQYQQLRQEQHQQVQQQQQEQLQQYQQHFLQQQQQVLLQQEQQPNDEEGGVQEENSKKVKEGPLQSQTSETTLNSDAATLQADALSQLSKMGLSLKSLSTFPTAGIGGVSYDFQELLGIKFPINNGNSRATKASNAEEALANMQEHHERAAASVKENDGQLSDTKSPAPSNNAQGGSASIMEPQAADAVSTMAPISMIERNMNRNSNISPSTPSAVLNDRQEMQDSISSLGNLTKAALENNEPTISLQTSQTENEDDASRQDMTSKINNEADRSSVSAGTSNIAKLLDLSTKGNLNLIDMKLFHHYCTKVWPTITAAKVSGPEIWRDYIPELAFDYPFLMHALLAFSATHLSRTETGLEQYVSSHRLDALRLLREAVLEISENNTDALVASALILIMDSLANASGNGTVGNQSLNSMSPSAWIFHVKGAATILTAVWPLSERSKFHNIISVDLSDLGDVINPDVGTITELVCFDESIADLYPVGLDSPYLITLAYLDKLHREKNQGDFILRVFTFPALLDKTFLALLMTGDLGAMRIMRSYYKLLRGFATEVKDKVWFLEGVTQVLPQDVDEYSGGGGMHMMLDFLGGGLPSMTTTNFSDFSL
Assay: PBM E-score (8-mer binding enrichment) (E-score (-0.5 to 0.5)); higher = stronger / more preferred TF binding; most listed sequences are background and not binding sites
Conditions: protein concentration: 200 nM; construct: GST-full length
Method: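 Universal 'all 10-mer' protein binding microarrays (Agilent AMADID 015681) probed with GST-tagged S. cerevisiae TFs (full-length or DBD) made by in vitro transcription/translation (PURExpress), about 100-200 nM. Bound TF was detected with fluorescent anti-GST. Each ungapped 8-mer (which stands for itself and its reverse complement) is scored by the PBM enrichment score (E-score), a modified Wilcoxon-Mann-Whitney statistic from -0.5 to +0.5, computed with the Universal PBM Analysis Suite. Scale: above 0.35 generally sequence-specific binding.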

Sequence	PBM E-score
CGAATGAG	0.0933
CAGTAATC	-0.171
AGACAAAG	0.0658
AACTTTAT	-0.0521
TAATAACA	0.0903
GCCATGTA	-0.0374
ACGATCCA	0.306
AACGATAC	0.413
GCATCGCA	-0.0567
AATTAGAT	0.0833
GCCGAAAC	-0.037
GATAGTCC	-0.129
CCACTCCG	-0.08
GTATTGGA	-0.00883
GATTGAGA	-0.0357
AAGGTTGG	-0.0326
CTTAGTCA	-0.218
AAGCTACG	0.256
ACCGGATC	-0.0922
ATATTCAA	0.0351
GGACAAGA	-0.136
CCTAAGAA	-0.11
GTCCCCCA	-0.157
GCAATGCC	-0.00733
CCACGTAA	0.103

Sequence	PBM E-score
ATCCGTAC	0.366
ACATGCAA	-0.0367
CGATGAAC	0.127
ACAAGTGG	-0.2
CCTCGCGA	0.207
AGGCGGTC	-0.0142
CCTGTTTA	0.017
CACGTGGC	-0.224
CGAGTAAG	0.113
GGACCACC	-0.112
GGCCCACA	-0.0602
CTTAAACC	0.0632
GACAATCA	-0.00959
AGTATTTA	-0.0307
AGCTAGCT	-0.115
AACACGGT	0.0435
GAGGAGGC	-0.11
CTGAAACA	-0.174
ATGGTAGA	-0.17
CTTCAAAC	0.122
AGCTAGTA	0.0399
GCGATGAA	-0.011
AGAAATAC	0.0311
AGGATACG	0.332
CTTTCTTC	-0.158

Sequence	PBM E-score
CGATGTAG	0.036
AACAAATT	0.00094
CTAACGGA	0.0896
GGAACATA	0.00323
GAATGAGA	-0.237
AGCATGGG	-0.249
GAAAAGTA	0.0477
AATGTGCA	0.0502
TTGCGAAA	0.0964
AAGTTTCC	-0.0551
AAGCAAGC	-0.114
AGTGAGCG	-0.0187
GTAAATAC	0.175
GGAGTGCA	-0.0479
ACTTCGAT	0.137
CGCTACTC	0.0112
AAGGGGTG	-0.265
GCCTGCAA	-0.0133
AGTGTAGC	-0.14
AGAGCTAG	-0.113
CTAGAGGA	-0.337
GTAGTCAC	-0.225
CCGTTCCC	0.385
ACAGCAAT	-0.0404
GAGCAGCA	-0.098

Sequence	PBM E-score
ATACGATC	0.465
GATCTGCC	-0.145
AAAGAATC	-0.0264
AGGGCTCG	0.224
AAGAAATG	-0.0455
CCTCACCA	-0.0918
ACCGAGGG	0.137
AAGTGGTA	-0.0616
ATTTTTGA	-0.136
CTACTCTA	-0.0845
CGATTAAA	0.282
GATCTGAC	-0.0617
ATTTGGTA	-0.0347
CCCGGGTC	-0.162
AGCGCGGC	-0.164
CGGGTAAA	0.18
CATCCTCG	0.109
AGCGTTCC	0.117
GATTAATC	0.101
CTATTGAG	-0.135
CTGGTCCC	-0.271
CCAACGAG	0.091
AACTATTA	0.0272
ACTTAATG	0.19
ATATTATG	-0.00531

Sequence	PBM E-score
GTCGCTAA	0.271
ATATGCAA	-0.0189
TTTCGAAA	0.161
AGGTACTG	-0.108
GGGACCAC	-0.24
ATTAGACA	-0.139
ACGGAGAT	0.0291
AGCCGATG	-0.0627
AAATTAAC	0.00077
CACACCTA	0.0891
CGGGGCCA	-0.00898
ACTGGCAT	-0.227
CAATTATG	0.00554
ACGCATAT	0.124
CCTCGTTC	0.46
TATTACGA	0.364
ATATTGAT	0.007
ATCAAACA	-0.167
AATCCCAA	-0.0579
ACGCATCT	-0.0343
GCATGTCC	-0.21
CAGTCGCA	0.077
TGTAGACA	-0.0876
CATGATAA	0.0845
CGGCTCAG	0.0248

Sequence	PBM E-score
CTGTTCTA	-0.233
ACGCATAG	0.269
CTCGGAAC	0.248
ATCGTGTA	0.279
CTGCCACC	-0.262
ACAAGCGC	0.0528
ACCGAATC	0.197
ACAAGAAT	-0.215
CAGAGCAG	-0.14
ACGGCCCG	0.219
AATTGTAC	0.296
CAACATAC	0.259
GAGTGCGA	0.0252
CTTAAGCC	-0.122
ACTTCACA	-0.0551
CCCAACGC	-0.156
CTGGGAAC	0.0868
ACTTTGGA	0.00092
GGTTTAAC	0.138
GCATCCAC	-0.117
ACTCTCTC	-0.122
ATGCGTTG	-0.0232
ACTGTTTG	0.0144
AGTATACA	0.149
GACTTAAA	0.158

Sequence	PBM E-score
ACACTTCT	-0.0252
AGGGCGGC	-0.192
ATTGATAG	-0.101
CCATATAC	0.306
CAGCAGTC	-6e-05
ATATAACA	0.09
CTATGAAA	-0.198
TACAACAA	0.148
CGCTGAGA	-0.169
TGCGTACA	0.318
ACTGTCCG	0.148
CTGTGGTA	-0.0139
AACCTTAC	0.0867
GCCAGAAA	-0.0776
GTTCATAA	0.0195
GTCTGTTA	-0.00123
AATCTACC	-0.0212
GACACCTA	-0.118
CAGGTTCA	-0.195
CTGGACTA	-0.326
CCAAGGAG	-0.335
CGTGTGAA	0.113
GCGATCTA	0.0291
ATCGAGAC	0.136
AGCCATAT	0.0338

Sequence	PBM E-score
ATCGTGCA	0.0793
AATGGTTA	-0.116
CCACGCCG	-0.0532
ACGTACTC	0.29
CCCTATAA	-0.00945
TCCATAAA	-0.102
CGATCCTC	0.149
CTCTGGTC	-0.299
AAGGCAGA	-0.143
GTCTCCAC	-0.174
GATCCAGA	0.0551
CAGCGATA	0.0549
AGATAATC	-0.0843
GACACAGA	-0.18
CAGCCTAA	-0.0736
AAGGGACT	-0.322
AAGACTAT	-0.0464
AAGATTCA	-0.144
CCAACTAC	-0.0639
CCGCTCAG	-0.0425
CCATCGAG	0.0899
TATTAATA	0.131
CTCCTCGA	-0.024
ACGGACAC	0.11
CAACACGG	-0.0862

Sequence	PBM E-score
CTTCGCGC	0.0794
ACTCTTAC	0.173
AAGTGTAG	-0.281
CGGTCCGA	0.131
TAGAAAGA	-0.0972
AATAGGAG	-0.29
GACGCAGC	-0.187
AATTGAAG	-0.132
AGAAGCGC	-0.146
ACTAGGAG	-0.385
AATAAGTA	0.0339
AGATTTGA	-0.0863
GCGCCCTA	-0.0195
ATCTTTCA	-0.0489
AGTCTTGC	-0.144
GGGGTTCA	-0.0912
AGTCCAAC	-0.228
ACAAGCAC	-0.0434
GTGTACGA	0.479

— the supplement of paper PMC3334620
